In the BET-seq Pho4 binding data (Le et al. 2018):
Some of the results follow. The energies were worked out here from pooled read counts, against the library average; single values are noisy.

Each sequence was assayed against T1, Pho4 (S. cerevisiae) (UniProt P07270) (assay: relative binding free energy (BET-seq); higher = weaker binding). Details: reference: library average.
T1 sequence: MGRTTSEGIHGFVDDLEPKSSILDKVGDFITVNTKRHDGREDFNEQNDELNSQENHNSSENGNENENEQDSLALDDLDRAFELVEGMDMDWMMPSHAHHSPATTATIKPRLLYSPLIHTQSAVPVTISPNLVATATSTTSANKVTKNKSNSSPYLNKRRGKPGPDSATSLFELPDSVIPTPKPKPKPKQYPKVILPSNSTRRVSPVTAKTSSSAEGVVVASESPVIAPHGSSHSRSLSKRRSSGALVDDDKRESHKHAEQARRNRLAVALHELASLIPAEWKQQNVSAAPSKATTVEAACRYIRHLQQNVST

Sequence	relative binding free energy [kcal/mol]
GGGTGCACGTGGGCGA	-0.18
TTGTTCACGTGGCGTA	0.24
GGATGCACGTGGGACA	0.02
ATGACCACGTGGTTGG	-0.02
GGTTACACGTGGGCGT	0.05
ATATACACGTGTTGCT	-0.05
GCGGGCACGTGAACGG	0.13
TGTGGCACGTGACGTC	-0.05
TGCTGCACGTGGTTCG	-0.22
GGTGTCACGTGGGAAA	0.16
TACTTCACGTGCGGGT	0.22
AAACGCACGTGTGTGT	-0.14
TAGAACACGTGTGGTG	0.1
TATGGCACGTGTGGGT	-0.01
GCAATCACGTGGTAGG	0.07
GTCTGCACGTGTTGAG	0.19
GTGAGCACGTGTATAT	-0.03
ATAGTCACGTGGTATC	0.04
GGAATCACGTGTAGGA	0.15
GGCATCACGTGGGTGT	0.1
GATTGCACGTGATTAA	0.25
AATGACACGTGTTGGT	0.07
TTTTCCACGTGTCTTT	0.14

Sequence	relative binding free energy [kcal/mol]
TTGGGCACGTGCATTT	-0.18
AGTTGCACGTGCCGGT	-0.21
AGTCTCACGTGGGTAT	0.15
GCATTCACGTGATGTG	0.23
GTAAACACGTGTTTAT	-0.09
GCAAACACGTGTGTGT	-0.07
CCTTGCACGTGGCGGG	-0.1
TAGTCCACGTGGCGTG	-0.08
TGCGGCACGTGCAGGT	-0.23
CGTTTCACGTGCAGGA	0.33
AGCGGCACGTGGGGCT	-0.2
TTGCCCACGTGTAGGG	-0.09
GGCAACACGTGTGTTG	0.09
AGGGGCACGTGAAATT	0.18
TTGGACACGTGACGTG	0.11
ATGTACACGTGTGATC	0.25
TGTGGCACGTGAGCGC	0.03
GTTTTCACGTGGGTCG	0.22
TTGGTCACGTGGAAGA	0.09
GGTAGCACGTGGGGGC	-0.14
CGTTGCACGTGTTATA	0.05
GTTGGCACGTGACGGA	0.18
TTTCGCACGTGTCTTG	0.05

Sequence	relative binding free energy [kcal/mol]
ACGTTCACGTGTGAAG	0.34
ATTGGCACGTGGGGCC	-0.17
TTGGACACGTGTTGCT	-0.03
GATTGCACGTGTTAAA	0.03
GGGAGCACGTGGTTTG	-0.01
TTTCTCACGTGTAGCG	0.39
CGTTGCACGTGTAAGT	0.04
ATGAGCACGTGGTCAG	-0.2
AGCGTCACGTGGTTAT	-0.04
ATGTCCACGTGGTGTA	-0.1
ATTGTCACGTGCGTTC	0.15
GGGGTCACGTGGTAAC	0.13
TGTGACACGTGGCGTT	-0.16
TGCGTCACGTGAAGGT	0.08
TTATTCACGTGCTTAT	0.14
CGGTGCACGTGGGGAT	-0.13
GGTGCCACGTGTTTTA	0.04
GGTAGCACGTGACGGT	0.03
GTTTTCACGTGGTGAA	0.4
GTTCGCACGTGGGCAG	-0.17
TTAGTCACGTGTATGG	0.15
TGGAGCACGTGCCGGA	-0.03
CATAGCACGTGTTAGG	-0.13

Sequence	relative binding free energy [kcal/mol]
GATAGCACGTGTTAGG	0.08
GATGGCACGTGTAGTA	0.13
AGTAACACGTGTAATA	0.16
GGAGACACGTGGGGAT	-0.08
ATATCCACGTGGGTGG	-0.23
CGTTGCACGTGGCTTT	-0.04
ATTTTCACGTGCGTAA	0.11
TTTCTCACGTGGGTAG	0.13
AGTTACACGTGATGTA	0.2
TGGAGCACGTGACGTA	0.16
ATCATCACGTGAGGTA	0.35
AAAGGCACGTGGAGAG	0.01
AGTTTCACGTGGCAGA	0.27
AATCTCACGTGTGTTT	0.24
AGGTACACGTGTATAA	0.12
GATTTCACGTGGGGCC	0.28
TGTAACACGTGGCGGC	0.08
CTGATCACGTGTTGTT	0.1
TAGGTCACGTGTTTAG	0.15
AGGGGCACGTGGCGAT	-0.13
AGGGGCACGTGATGCT	-0.2
AATCTCACGTGAAGTG	0.38
ATTAGCACGTGATTAA	-0.01

Sequence	relative binding free energy [kcal/mol]
TCAGGCACGTGTTTGA	-0.04
GTTAACACGTGAATTG	0.37
GCGTTCACGTGTAGGT	0.19
GGATGCACGTGGGTCA	-0.09
GTACTCACGTGAGGGG	0.27
TTCAACACGTGGTTTT	0.01
TGGTCCACGTGTGAAG	0.11
TTGGTCACGTGAAGGG	0.36
GAGGGCACGTGGAGTA	-0.02
TGGCACACGTGTTGGA	-0.02
ACTCGCACGTGGGTTG	-0.06
TGCGACACGTGGGGAA	-0.04
GTGCACACGTGGGGGG	-0.07
GGTTGCACGTGTGTAC	0.11
GTATTCACGTGGAATG	0.29
ATCTTCACGTGAATTA	0.5
GGTGTCACGTGCGGGT	0.02
TCTTTCACGTGGTTTA	0.24
AAGATCACGTGTTGAG	0.23
CGTCACACGTGTGTTT	0.12
TAGTCCACGTGTTGGT	0.03
TAAGGCACGTGTGGCT	-0.03
TAGGGCACGTGTATTA	-0.06
